The results in this text go back to ChEMBL document CHEMBL4888484, “Replenishing the malaria drug discovery pipeline: Screening and hit evaluation of the MMV Hit Generation Library 1 (HGL1) against asexual blood stage Plasmodium falciparum ,using a nano luciferase reporter read-out” (2022).

In general, % Inhibition refers to the relative decrease from the control value, in per cent.

About 540 (0.36%) of roughly 150,000 compounds showed an effect of 50% or more. Some of the results follow.

In this assay the test system is Plasmodium falciparum. Put plainly: Primary screen in NF54 nanoGlo assay, in single point, at 2uM, 72h; a lower Z score goes with more inhibition. Format: functional, Erythrocyte. The settings on record: timepoint 72 hour.
With `CN(Cc1ccc2ccccc2n1)C(=O)NC1(C(=O)O)CCCC1`, the “% Inhibition” value is listed as -10% and the Z score turned out to be 1.04.
Consider `Cc1cc(C(=O)N2CC(n3ccnn3)C2)no1`, for which the “% Inhibition” value is recorded as -10% and the Z score was 1.42.
Taken in the same sequence, the figures for `Cc1ccc([C@H](CNc2oc(-c3cccnc3)nc2C#N)N2CCCCCC2)cc1` were 2% and -0.33.
Taken in the same sequence, the figures for `CCC(C)(C)NC(=O)CN1CCC[C@H]1c1nc(-c2ccccc2)n[nH]1` were 31% and -3.46.
In the same order, the values of `COC1(c2ccccc2)CN(c2ncnc3ccccc23)C1` are -10% and 1.31.
`Nc1nc2c(c(N3CC=CC3)n1)CCN(C(=O)Cn1cnnn1)CC2`: the “% Inhibition” value was -13% and the Z score is 2.55.
Regarding `COc1ccc(S(=O)(=O)C(F)(F)F)cc1NC(=O)CCCNC(=O)C(C)(C)C`, the “% Inhibition” value stood at 0% and the Z score is on record as -0.04.
In the same order, the values of `COc1ccccc1CN(c1cc(N2CCC[C@H](CO)C2)ncn1)C1CC1` are -8% and 0.76.
In the same order, the values of `Fc1cccnc1CNc1ncccn1` are -9% and 0.9.
Take `Fc1ccccc1CNc1nc(-c2nnc(-c3ccccc3)o2)nc2ccccc12`: the “% Inhibition” value is on record as -8% and the Z score worked out at 1.47.
Taken in the same sequence, the figures for `CCCc1cc(N2CCN(Cc3cncnc3)CC2)nc(C)n1` were -20% and 2.18.
In the case of `O=C(OCc1ccccc1)C1C2CCC(C2)N1C(=O)NC1CCCCC1` (stereo unspecified), the “% Inhibition” value is -2% and the Z score was 0.36.
Taken in the same sequence, the figures for `O=C1CN(CC(=O)N[C@H](c2ccccc2)C2CCCCC2)CCN1` were -3% and 0.55.
In the same order, the values of `COC(=O)c1cc(NC(=O)[C@H]2CCOC2)cc(C(=O)OC)c1` are -7% and 0.69.
As for `CCN(Cc1nnnn1C(C)(C)C)c1cnn(C)c1`, the “% Inhibition” value came to 4% and the Z score is on record as -0.38.
Regarding `COc1ccc(C)cc1NC(=O)Cn1c(=O)n(Cc2ccc3c(c2)OCO3)c(=O)c2sccc21`, the “% Inhibition” value worked out at 11% and the Z score is reported as -1.59.
Taken in the same sequence, the figures for `Cc1cc(Cn2c(C)nc3c2CCCC3)no1` were 1% and -0.22.
Taken in the same sequence, the figures for `Cc1ccc(-c2noc(C[C@H]3CNCCS3(=O)=O)n2)cc1Cl` were 7% and -0.86.
In the same order, the values of `OC[C@H]1CCCN1Cc1cnc2c(-c3ccccc3)cnn2c1` are 1% and -0.15.
Regarding `Cc1nc2c(c(=O)n1C)CN(C(=O)CCc1ccc3c(c1)OCO3)C2`, the “% Inhibition” value is listed as -6% and the Z score turned out to be 0.9.
Taken in the same sequence, the figures for `CCCOc1c(Cl)cc(C(=O)N(Cc2cccc3ccccc23)[C@H]2CCS(=O)(=O)C2)cc1Cl` were -12% and 1.59.
In the same order, the values of `COc1ccccc1-c1nnc2c3ccc(Cl)cc3nc(N3CCN(C(=O)c4ccc(C)cc4)CC3)n12` are -13% and 1.38.
Taken in the same sequence, the figures for `c1ccc2c(C[C@H]3COCCN3Cc3nncs3)c[nH]c2c1` were -14% and 1.42.
Consider `Cc1c(C(=O)NCc2nn(C)c3c2CN(C)CC3)cc(-c2ccc(F)cc2)n1C`, for which the “% Inhibition” value is on record as -1% and the Z score is given as 0.17.
In the same order, the values of `Cc1cc(Br)c(OCc2ccc(-c3nnc4n3CCCCC4)cc2)c(Br)c1` are -6% and 0.81.
In the case of `CC(C)CN(CCN(C)C)C(=O)Nc1cnn(C)c1`, the “% Inhibition” value is -11% and the Z score came to 1.62.
In the same order, the values of `CC(C)c1nnc2n1CCN(C(=O)Nc1cccc(F)c1)[C@H]2C` are -9% and 1.09.
Regarding `CCN(Cc1cnn(-c2ccc(C)c(C)c2)c1)C[C@H]1CCCO1`, the “% Inhibition” value is on record as -9% and the Z score was determined as 1.81.
As for `O=C(c1cccs1)N(Cc1ccccn1)c1nc2ccccc2s1`, the “% Inhibition” value turned out to be 4% and the Z score is recorded as -0.46.
Taken in the same sequence, the figures for `OCc1ccc(Cl)c(NCCOCC(F)(F)F)c1` were 5% and -0.78.
In the same order, the values of `CN(C)C(=O)CC(=O)N1CCC=C(F)C1` are -8% and 1.08.
Taken in the same sequence, the figures for `CC(C)(C)OC(=O)N1CCC[C@@H]1Cn1cc(C(=O)NC2CC2)nn1` were -15% and 1.6.
Take `CC1CCN(Cc2nnnn2CCCC(=O)N[C@H](c2ccccn2)C(F)(F)F)CC1`: the “% Inhibition” value is recorded as -9% and the Z score was 1.23.
Taken in the same sequence, the figures for `Cc1ccccc1CN1C(=O)c2cc(-c3ccco3)nn2C[C@@]1(C)C(=O)NCCC(C)C` were 1% and -0.14.
In the same order, the values of `CCCCC(C)C(=O)N1CCOCCC1C` (stereo unspecified) are 13% and -1.29.
On to `CC(C)CCc1cc(NC(=O)N[C@H]2CCN(c3ncccc3Cl)C2)n(C)n1`, for which the “% Inhibition” value is listed as 4% and the Z score was -0.66.
In the same order, the values of `Cc1ccc(-n2nc(C)c([C@@H]3CCC(=O)N3)c2C)c(C)c1` are 0% and -0.04.
In the same order, the values of `Cc1ccc(-c2nc(C(=O)N3C(C)CN(C(=O)OC(C)(C)C)CC3C)cs2)o1` (stereo unspecified) are -9% and 0.79.
On to `Cc1nn(C)c(C)c1CC(=O)Nc1nc2ccccc2[nH]1`, for which the “% Inhibition” value is -2% and the Z score came out at 0.39.
In the same order, the values of `CCc1nocc1CNc1cc(C(F)(F)F)n(C)n1` are 5% and -0.84.
In the same order, the values of `Cc1cc(C(=O)N2CCC[C@H](Oc3cnccn3)C2)c(C)o1` are -21% and 3.51.
Taken in the same sequence, the figures for `O=C(CC1CCCO1)NCC1NCCc2ccccc21` (stereo unspecified) were 4% and -0.55.
Turning to `Cc1nnc(CN2CCN(C3CCCC3)[C@@H](C)C2)o1`, the “% Inhibition” value was -9% and the Z score came to 1.04.
